This is one part of the list.
How the values were obtained:
Experiment in all cases: glycan array binding signal (z-score within array); higher = stronger binding
Conditions in all cases: glycan notation: IUPAC condensed, linker removed
Gal(a1-6)Glc = target: Gal(a1-6)Glc
In short: (§1)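 Glycan array data were curated from 3228 arrays in the Consortium for Functional Glycomics database and kept only where the protein sequence was available. Glycan names were converted to IUPAC-condensed notation, and columns mapping to the same glycan were averaged. The binding signal is a within-array Z-score, averaged across arrays of the same protein sequence at different concentrations or buffers and across linkers. Negative Z-scores can be read as non-binding.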

Gal(b1-2)Gal = target: Gal(b1-2)Gal
In short: as §1

Gal(b1-3)Gal = target: Gal(b1-3)Gal
In short: as §1

Gal(b1-3)Gal(b1-4)GlcNAc = target: Gal(b1-3)Gal(b1-4)GlcNAc
In short: as §1

Gal(b1-3)GalNAc = target: Gal(b1-3)GalNAc
In short: as §1

[1] = target: Gal(b1-3)GalNAc(a1-3)[Fuc(a1-2)]Gal(b1-4)Glc
In short: as §1

[2] = target: Gal(b1-3)GalNAc(a1-3)[Fuc(a1-2)]Gal(b1-4)GlcNAc
In short: as §1

Gal(b1-3)GalNAc(b1-3)Gal = target: Gal(b1-3)GalNAc(b1-3)Gal
In short: as §1

[3] = target: Gal(b1-3)GalNAc(b1-3)Gal(a1-4)Gal(b1-4)Glc
In short: as §1

[4] = target: Gal(b1-3)GalNAc(b1-4)Gal(b1-4)Glc
In short: as §1

[5] = target: Gal(b1-3)GalNAc(b1-4)[Neu5Ac(a2-3)]Gal(b1-4)Glc
In short: as §1

Gal(b1-3)GlcNAc = target: Gal(b1-3)GlcNAc
In short: as §1

[6] = target: Gal(b1-3)GlcNAc(a1-3)Gal(b1-4)GlcNAc
In short: as §1

[7] = target: Gal(b1-3)GlcNAc(a1-6)Gal(b1-4)GlcNAc
In short: as §1

Gal(b1-3)GlcNAc(b1-2)Man = target: Gal(b1-3)GlcNAc(b1-2)Man
In short: as §1

[8] = target: Gal(b1-3)GlcNAc(b1-2)Man(a1-3)[Gal(b1-3)GlcNAc(b1-2)Man(a1-6)]Man(b1-4)GlcNAc(b1-4)GlcNAc
In short: as §1

[9] = target: Gal(b1-3)GlcNAc(b1-2)Man(a1-3)[Gal(b1-3)GlcNAc(b1-2)Man(a1-6)]Man(b1-4)GlcNAc(b1-4)[Fuc(a1-6)]GlcNAc
In short: as §1

[10] = target: Gal(b1-3)GlcNAc(b1-2)Man(a1-3)[GlcNAc(b1-4)][Gal(b1-3)GlcNAc(b1-2)Man(a1-6)]Man(b1-4)GlcNAc(b1-4)GlcNAc
In short: as §1

[11] = target: Gal(b1-3)GlcNAc(b1-2)[Gal(b1-3)GlcNAc(b1-6)]Man(a1-6)[Gal(b1-3)GlcNAc(b1-2)Man(a1-3)]Man(b1-4)GlcNAc(b1-4)GlcNAc
In short: as §1

[12] = target: Gal(b1-3)GlcNAc(b1-3)Gal(b1-3)GlcNAc
In short: as §1

[13] = target: Gal(b1-3)GlcNAc(b1-3)Gal(b1-4)Glc
In short: as §1

[14] = target: Gal(b1-3)GlcNAc(b1-3)Gal(b1-4)GlcNAc
In short: as §1

[15] = target: Gal(b1-3)GlcNAc(b1-3)Gal(b1-4)GlcNAc(b1-2)Man(a1-3)[Gal(b1-3)GlcNAc(b1-3)Gal(b1-4)GlcNAc(b1-2)Man(a1-6)]Man(b1-4)GlcNAc(b1-4)GlcNAc
In short: as §1

[16] = target: Gal(b1-3)GlcNAc(b1-3)Gal(b1-4)GlcNAc(b1-2)[Gal(b1-3)GlcNAc(b1-3)Gal(b1-4)GlcNAc(b1-6)]Man(a1-6)[Gal(b1-3)GlcNAc(b1-3)Gal(b1-4)GlcNAc(b1-2)Man(a1-3)]Man(b1-4)GlcNAc(b1-4)[Fuc(a1-6)]GlcNAc
In short: as §1

[17] = target: Gal(b1-3)GlcNAc(b1-3)Gal(b1-4)GlcNAc(b1-3)Gal(b1-4)GlcNAc(b1-2)[Gal(b1-3)GlcNAc(b1-3)Gal(b1-4)GlcNAc(b1-3)Gal(b1-4)GlcNAc(b1-6)]Man(a1-6)[Gal(b1-3)GlcNAc(b1-3)Gal(b1-4)GlcNAc(b1-3)Gal(b1-4)GlcNAc(b1-2)Man(a1-3)]Man(b1-4)GlcNAc(b1-4)[Fuc(a1-6)]GlcNAc
In short: as §1

[18] = target: Gal(b1-3)GlcNAc(b1-3)Gal(b1-4)GlcNAc(b1-6)[Gal(b1-3)GlcNAc(b1-3)]Gal(b1-4)Glc
In short: as §1

[19] = target: Gal(b1-3)GlcNAc(b1-3)Gal(b1-4)[Fuc(a1-3)]GlcNAc
In short: as §1

[20] = target: Gal(b1-3)GlcNAc(b1-3)Gal(b1-4)[Fuc(a1-3)]GlcNAc(b1-6)[Gal(b1-3)GlcNAc(b1-3)]Gal(b1-4)Glc
In short: as §1

[21] = target: Gal(b1-3)GlcNAc(b1-3)GalNAc
In short: as §1

[22] = target: Gal(b1-3)GlcNAc(b1-6)Gal(b1-4)GlcNAc
In short: as §1

[23] = target: Gal(b1-3)GlcNAc(b1-6)GalNAc
In short: as §1

[24] = target: Gal(b1-3)GlcNAc(b1-6)[Gal(b1-3)]GalNAc
In short: as §1

Gal(b1-3)GlcNAc6S = target: Gal(b1-3)GlcNAc6S
In short: as §1

[25] = target: Gal(b1-3)[Fuc(a1-4)]GlcNAc
In short: as §1

[26] = target: Gal(b1-3)[Fuc(a1-4)]GlcNAc(b1-2)Man
In short: as §1

[27] = target: Gal(b1-3)[Fuc(a1-4)]GlcNAc(b1-2)Man(a1-3)[Gal(b1-3)[Fuc(a1-4)]GlcNAc(b1-2)Man(a1-6)]Man(b1-4)GlcNAc(b1-4)[Fuc(a1-6)]GlcNAc
In short: as §1

[28] = target: Gal(b1-3)[Fuc(a1-4)]GlcNAc(b1-3)Gal(b1-3)[Fuc(a1-4)]GlcNAc
In short: as §1

[29] = target: Gal(b1-3)[Fuc(a1-4)]GlcNAc(b1-3)Gal(b1-4)[Fuc(a1-3)]GlcNAc
In short: as §1

[30] = target: Gal(b1-3)[Fuc(a1-4)]GlcNAc(b1-6)GalNAc
In short: as §1

[31] = target: Gal(b1-3)[GlcNAc(b1-6)]GalNAc
In short: as §1

[32] = target: Gal(b1-3)[Neu5Ac(a2-6)]GalNAc
In short: as §1

[33] = target: Gal(b1-3)[Neu5Ac(a2-6)]GlcNAc(b1-4)Gal(b1-4)Glc
In short: as §1

[34] = target: Gal(b1-3)[Neu5Ac(b2-6)]GalNAc
In short: as §1

Gal(b1-4)Gal = target: Gal(b1-4)Gal
In short: as §1

[35] = target: Gal(b1-4)GalNAc(a1-3)[Fuc(a1-2)]Gal(b1-4)GlcNAc
In short: as §1

B1: Mg1lysM (Mycosphaerella graminicola) (protein)
chain: QRNPITITPQFDCGATNSQQYVARSGDTLTKIAQEIYHDVVGVCDIARANNLADPNRIDAGTPYTIPINCQTYDRNSCL
glycan array binding signal (z-score) (Gal(a1-6)Glc): -0.075
glycan array binding signal (z-score) (Gal(b1-2)Gal): -0.075
glycan array binding signal (z-score) (Gal(b1-3)Gal): -0.061
glycan array binding signal (z-score) (Gal(b1-3)Gal(b1-4)GlcNAc): -0.084
glycan array binding signal (z-score) (Gal(b1-3)GalNAc): -0.07
glycan array binding signal (z-score) [1]: -0.088
glycan array binding signal (z-score) [2]: -0.092
glycan array binding signal (z-score) (Gal(b1-3)GalNAc(b1-3)Gal): -0.052
glycan array binding signal (z-score) [3]: -0.06
glycan array binding signal (z-score) [4]: -0.049
glycan array binding signal (z-score) [5]: -0.08
glycan array binding signal (z-score) (Gal(b1-3)GlcNAc): -0.069
glycan array binding signal (z-score) [6]: -0.067
glycan array binding signal (z-score) [7]: -0.088
glycan array binding signal (z-score) (Gal(b1-3)GlcNAc(b1-2)Man): -0.072
glycan array binding signal (z-score) [8]: -0.049
glycan array binding signal (z-score) [9]: -0.079
glycan array binding signal (z-score) [10]: 0.125
glycan array binding signal (z-score) [11]: -0.066
glycan array binding signal (z-score) [12]: -0.087
glycan array binding signal (z-score) [13]: -0.059
glycan array binding signal (z-score) [14]: -0.07
glycan array binding signal (z-score) [15]: -0.05
glycan array binding signal (z-score) [16]: 0.02
glycan array binding signal (z-score) [17]: -0.044
glycan array binding signal (z-score) [18]: -0.069
glycan array binding signal (z-score) [19]: -0.089
glycan array binding signal (z-score) [20]: -0.078
glycan array binding signal (z-score) [21]: -0.087
glycan array binding signal (z-score) [22]: -0.047
glycan array binding signal (z-score) [23]: -0.044
glycan array binding signal (z-score) [24]: -0.054
glycan array binding signal (z-score) (Gal(b1-3)GlcNAc6S): -0.073
glycan array binding signal (z-score) [25]: -0.066
glycan array binding signal (z-score) [26]: -0.063
glycan array binding signal (z-score) [27]: -0.074
glycan array binding signal (z-score) [28]: -0.072
glycan array binding signal (z-score) [29]: -0.089
glycan array binding signal (z-score) [30]: -0.059
glycan array binding signal (z-score) [31]: -0.084
glycan array binding signal (z-score) [32]: -0.067
glycan array binding signal (z-score) [33]: -0.077
glycan array binding signal (z-score) [34]: -0.093
glycan array binding signal (z-score) (Gal(b1-4)Gal): -0.077
glycan array binding signal (z-score) [35]: -0.076

From the supplement of paper PMC8728848
